From patent US5668170A, “Composition and method enhancing transdermal electrotransport agent delivery” (ALZA Corporation, priority 1996, dated 1997)

Procedure: Each floating epidermis was stretched essentially flat.
where V is the potential applied by the galvanostat and I is the electric current, 126 microamps. The drug flux was determined by periodic sampling of the solution in the receptor compartment 46.
Aqueous metoclopramide HCl (an anti-emetic drug salt) solutions having a concentration of about 100 mg/ml were placed in the donor compartment. The pH in the donor compartment was not adjusted but remained naturally at about 5.0 to 5.5 throughout the experiments. In an aqueous solution, metoclopramide HCl forms a positively charged drug ion and the electrotransport enhancers utilized in this experiment were representative of the following different categories of surfactants:
Each surfactant was added to a final concentration of 10 mM (except for dodecylpyrrolidone which was added to a final concentration of 100 mM) to the donor solutions for comparative purposes. The system was maintained at about 32° C. by means of a HAAKE Model D1 heating block/water bath. A constant electric current of 126 μA, ie, 100 μA/cm^2, was applied with the galvanostat across the anode 48 and cathode 50 throughout the entire procedure, and the cell voltage was monitored over the entire time and then averaged.
Samples were automatically taken from the receptor compartment every one to two hours, except for overnight periods, with an autosampler (ISCO Model 2230 Lincoln City, Nebr.) and a metering pump. The metoclopramide concentration in the receptor compartment was determined by light absorption at 310 nm wavelength, using a standard curve of concentration v. absorption. The absorption measurements were obtained with a 8452A UV/vis spectrophotometer (Hewlett-Packard, Palo Alto, Calif.). Three cells were typically used for testing each of the electrotransport enhancer compositions to minimize error, and tissue from the same donor was used in the three cells, two of the cells having the selected electrotransport enhancer in the donor compartment, and the third cell being a control cell which contained no electrotransport enhancer.
Generally, the flux and voltage measurements were taken at or after about 5 hours, at which time these levels achieved a steady state.
The normalized mass flux and voltage values obtained in the presence of each one of the electrotransport enhancers for the steady state flux of metoclopramide are shown in Table 1. That is each value obtained in the presence of an enhancer is divided by the control value. Thus, the control value for the normalized flux and cell voltage are both 1, and the normalized values in the presence of an enhancer deviate from this value as they influence the resistivity of the skin and/or metoclopramide flux through the skin. […] .

| effect on metoclopramide mass flux (in words) | Compound |
| --- | --- |
| did not appear to affect | lauramphocarboxy propionate [Lauramphocarboxypropionate, reference compound] |
| fail to have a significant effect | Sorbitan monolaurate [reference compound] |
| none of these enhanced the mass flux | polyoxyethylene(23) lauryl ether [BRIJ 35, reference compound] |
| none of these enhanced the mass flux | polyethylene glycol monolaurate [PEG-4 monolaurate, reference compound] |
| none of these enhanced the mass flux | CCCCCCCCCCCCOC(=O)C(C)O (stereo not drawn) [Lauryl lactate, reference compound] |
| none of these enhanced the mass flux | polyethylene glycol di-laurate [PEG-4 Dilaurate, reference compound] |
